The record followed here is the supplement of paper PMC8728848.

Common to all, as to experiment: glycan array binding signal (z-score within array); higher = stronger binding
Settings in all cases: glycan notation: IUPAC condensed, linker removed

Assay [1] deals with Gal(b1-4)GlcNAc(b1-2)Man(a1-3)[Gal(b1-4)GlcNAc(b1-2)Man(a1-6)]Man(b1-4)GlcNAc(b1-4)GlcNAc. An outline of the steps:
(§1)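 Glycan array data were curated from 3228 arrays in the Consortium for Functional Glycomics database and kept only where the protein sequence was available. Glycan names were converted to IUPAC-condensed notation, and columns mapping to the same glycan were averaged. The binding signal is a within-array Z-score, averaged across arrays of the same protein sequence at different concentrations or buffers and across linkers. Negative Z-scores can be read as non-binding.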

For assay [2], the target named is Gal(b1-4)GlcNAc(b1-2)Man(a1-3)[Gal(b1-4)GlcNAc(b1-2)Man(a1-6)]Man(b1-4)GlcNAc(b1-4)[Fuc(a1-6)]GlcNAc. Put shortly: as §1
The target of assay [3] is Gal(b1-4)GlcNAc(b1-2)Man(a1-3)[Gal(b1-4)GlcNAc(b1-2)Man(a1-6)][Gal(b1-4)GlcNAc(b1-4)]Man(b1-4)GlcNAc(b1-4)[Fuc(a1-6)]GlcNAc. An outline of the steps:
as §1

Assay [4] concerns the target Gal(b1-4)GlcNAc(b1-2)Man(a1-3)[Gal(b1-4)GlcNAc(b1-2)Man(a1-6)][GlcNAc(b1-4)]Man(b1-4)GlcNAc(b1-4)[Fuc(a1-6)]GlcNAc. An outline of the steps:
as §1

Assay [5] addresses Gal(b1-4)GlcNAc(b1-2)Man(a1-3)[GlcNAc(b1-2)Man(a1-6)]Man(b1-4)GlcNAc(b1-4)GlcNAc. Put shortly:
as §1

Assay [6] concerns the target Gal(b1-4)GlcNAc(b1-2)Man(a1-3)[GlcNAc(b1-4)][Gal(b1-4)GlcNAc(b1-2)Man(a1-6)]Man(b1-4)GlcNAc(b1-4)GlcNAc. Put shortly: as §1
The target in assay [7] is Gal(b1-4)GlcNAc(b1-2)Man(a1-3)[Man(a1-6)]Man(b1-4)GlcNAc(b1-4)GlcNAc. An outline of the steps: as §1
In assay [8] the target is Gal(b1-4)GlcNAc(b1-2)Man(a1-6)Man(b1-4)GlcNAc(b1-4)GlcNAc. An outline of the steps:
as §1

Assay [9] deals with Gal(b1-4)GlcNAc(b1-2)Man(a1-6)[GlcNAc(b1-2)Man(a1-3)]Man(b1-4)GlcNAc(b1-4)GlcNAc. Put shortly:
as §1

The target in assay [10] is Gal(b1-4)GlcNAc(b1-2)Man(a1-6)[Man(a1-3)]Man(b1-4)GlcNAc(b1-4)GlcNAc. Put shortly:
as §1

The target of assay [11] is Gal(b1-4)GlcNAc(b1-2)[Gal(b1-4)GlcNAc(b1-4)]Man(a1-3)[Gal(b1-4)GlcNAc(b1-2)Man(a1-6)]Man(b1-4)GlcNAc(b1-4)GlcNAc. Put shortly: as §1
Assay [12] has as its target Gal(b1-4)GlcNAc(b1-2)[Gal(b1-4)GlcNAc(b1-4)]Man(a1-3)[Gal(b1-4)GlcNAc(b1-2)[Gal(b1-4)GlcNAc(b1-6)]Man(a1-6)]Man(b1-4)GlcNAc(b1-4)GlcNAc. An outline of the steps: as §1
Assay [13] addresses Gal(b1-4)GlcNAc(b1-2)[Gal(b1-4)GlcNAc(b1-4)]Man(a1-3)[GlcNAc(b1-4)][Gal(b1-4)GlcNAc(b1-2)Man(a1-6)]Man(b1-4)GlcNAc(b1-4)GlcNAc. An outline of the steps:
as §1

Assay [14] concerns the target Gal(b1-4)GlcNAc(b1-2)[Gal(b1-4)GlcNAc(b1-4)]Man(a1-3)[GlcNAc(b1-4)][Gal(b1-4)GlcNAc(b1-2)[Gal(b1-4)GlcNAc(b1-6)]Man(a1-6)]Man(b1-4)GlcNAc(b1-4)GlcNAc. Put shortly:
as §1

The target of assay [15] is Gal(b1-4)GlcNAc(b1-2)[Gal(b1-4)GlcNAc(b1-6)]Man(a1-6)[Gal(b1-4)GlcNAc(b1-2)Man(a1-3)]Man(b1-4)GlcNAc(b1-4)GlcNAc. Put shortly:
as §1

Assay [16] has as its target Gal(b1-4)GlcNAc(b1-2)[Gal(b1-4)GlcNAc(b1-6)]Man(a1-6)[Gal(b1-4)GlcNAc(b1-2)Man(a1-3)]Man(b1-4)GlcNAc(b1-4)[Fuc(a1-6)]GlcNAc. An outline of the steps: as §1
For assay [17], the target named is Gal(b1-4)GlcNAc(b1-2)[Gal(b1-4)GlcNAc(b1-6)]Man(a1-6)[GlcNAc(b1-4)][Gal(b1-4)GlcNAc(b1-2)Man(a1-3)]Man(b1-4)GlcNAc(b1-4)GlcNAc. An outline of the steps: as §1
Assay [18] concerns the target Gal(b1-4)GlcNAc(b1-2)[Gal(b1-4)GlcNAc(b1-6)]Man(a1-6)[GlcNAc(b1-4)][Gal(b1-4)GlcNAc(b1-2)[Gal(b1-4)GlcNAc(b1-4)]Man(a1-3)]Man(b1-4)GlcNAc(b1-4)[Fuc(a1-6)]GlcNAc. Put shortly: as §1
Assay [19] concerns the target Gal(b1-4)GlcNAc(b1-3)Gal(b1-3)GalNAc. An outline of the steps:
as §1

This is one part of the list.

B1: MGL (Homo sapiens), Q8IUN9 (protein)
chain: MTRTYENFQYLENKVKVQGFKNGPLPLQSLLQRLCSGPCHLLLSLGLGLLLLVIICVVGFQNSKFQRDLVTLRTDFSNFTSNTVAEIQALTSQGSSLEETIASLKAEVEGFKQERQAGVSELQEHTTQKAHLGHCPHCPSVCVPVHSEMLLRVQQLVQDLKKLTCQVATLNNNASTEGTCCPVNWVEHQDSCYWFSHSGMSWAEAEKYCQLKNAHLVVINSREEQNFVQKYLGSAYTWMGLSDPEGAWKWVDGTDYATGFQNWKPGQPDDWQGHGLGGGEDCAHFHPDGRWNDDVCQRPYHWVCEAGLGQTSQESH
B1: the “glycan array binding signal (z-score)” value in assay [1] was -0.254; in assay [2] it was -0.246; in [3] it was -0.26; in [4], -0.258; in assay [5], -0.252; in assay [6], -0.25. Besides, the “glycan array binding signal (z-score)” value was -0.232 in assay [7]; -0.247 in assay [8]; -0.229 in assay [9]; -0.24 in assay [10]; -0.244 in assay [11]; -0.245 in assay [12]. The “glycan array binding signal (z-score)” value is -0.245 in assay [13]; -0.265 in assay [14]; -0.244 in assay [15]; -0.238 in [16]; -0.244 in assay [17]; -0.244 in assay [18]. In addition, the “glycan array binding signal (z-score)” value in [19] is -0.27.
